{
  "source": "PubChem BioAssay AID488969",
  "about": "(Vanderbilt High Throughput Screening Facility, 2010)",
  "note": "In all, about 110,000 compounds were measured (“z-score”: median about -0.1, highest 2% from about 2 on). The list shows a part of the results. The source made the active and inactive calls.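 The calls were made as follows: active = z-score in the third read window above 3 or below -3; inactive = the rest.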",
  "data": [
    {"target": "Metabotropic glutamate receptor 8 (Rattus norvegicus) (UniProt P70579)", "sequence (P70579 whole entry, looked up)": "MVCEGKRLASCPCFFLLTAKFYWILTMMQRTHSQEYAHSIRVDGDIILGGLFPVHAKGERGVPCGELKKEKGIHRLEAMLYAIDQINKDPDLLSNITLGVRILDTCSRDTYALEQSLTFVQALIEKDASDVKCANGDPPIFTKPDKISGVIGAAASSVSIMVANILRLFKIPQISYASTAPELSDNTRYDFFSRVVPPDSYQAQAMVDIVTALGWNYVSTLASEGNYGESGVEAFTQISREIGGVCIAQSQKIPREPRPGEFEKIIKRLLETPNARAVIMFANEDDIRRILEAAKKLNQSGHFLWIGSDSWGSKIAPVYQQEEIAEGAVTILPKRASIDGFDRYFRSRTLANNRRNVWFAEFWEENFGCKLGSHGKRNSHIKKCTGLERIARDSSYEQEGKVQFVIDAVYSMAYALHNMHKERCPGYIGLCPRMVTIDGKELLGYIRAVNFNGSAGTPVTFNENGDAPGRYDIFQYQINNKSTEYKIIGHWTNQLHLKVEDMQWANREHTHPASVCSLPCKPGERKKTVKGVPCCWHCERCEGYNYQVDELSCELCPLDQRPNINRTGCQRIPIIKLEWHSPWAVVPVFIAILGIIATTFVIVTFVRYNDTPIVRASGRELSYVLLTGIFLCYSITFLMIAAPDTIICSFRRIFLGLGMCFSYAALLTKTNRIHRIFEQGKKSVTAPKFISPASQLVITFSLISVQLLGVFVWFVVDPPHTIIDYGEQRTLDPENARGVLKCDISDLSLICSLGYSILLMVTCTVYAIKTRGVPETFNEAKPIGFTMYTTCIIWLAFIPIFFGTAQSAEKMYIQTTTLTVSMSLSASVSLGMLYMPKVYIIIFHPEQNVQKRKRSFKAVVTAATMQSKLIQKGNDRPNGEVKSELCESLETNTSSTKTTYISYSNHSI", "assay": "mGluR8 Gi/Go-coupled signaling modulation – cell-based, rat, thallium flux, HTS, primary screen (AID 488969)", "conditions": "HEK293 rat mGluR8, GIRK (G protein-gated inwardly rectifying potassium channel) thallium flux, FluoZin2; at 10 µM; stronger effect = higher value; submaximal glutamate (EC20) added with thallium", "values": [
      {"smiles": "NC(=O)CSCc1ccc(Br)cc1", "z-score": -0.0319},
      {"smiles": "C=CCSc1nnc2c(n1)OC(c1ccccn1)N(C(C)=O)c1ccccc1-2", "note": "(configuration not stated)", "z-score": -0.0527},
      {"smiles": "CCCCCCCC(O)CC(CC1CCCCC1)C(=O)NN", "note": "(configuration not stated)", "z-score": -0.104},
      {"smiles": "Cc1cc(NC(NC(=O)c2ccco2)(C(F)(F)F)C(F)(F)F)no1", "z-score": -0.0405},
      {"smiles": "COc1cccc(-n2cnc(=O)c3cccnc32)c1", "z-score": -0.177},
      {"smiles": "CCN(CC)C(=O)n1nc(C)c(CN2C(=O)c3ccccc3C2=O)c1C", "z-score": -0.151},
      {"smiles": "O=S(=O)(c1ccc(F)c(Cl)c1)N1CCCC1", "z-score": -0.346},
      {"smiles": "C/C(=N\\NC(=O)c1cccnc1)c1c(O)cc(C)oc1=O", "z-score": -0.172},
      {"smiles": "CCN(CC)S(=O)(=O)c1cc(Br)ccc1OC", "z-score": -0.0877},
      {"smiles": "Cc1ccc(-c2nc(N/N=C/c3ccncc3)c3ccccc3n2)cc1", "z-score": -0.0845},
      {"smiles": "O=S(=O)(NN=C1CCCCCCC1)c1ccc(Br)cc1", "z-score": -0.033},
      {"smiles": "Oc1[nH]c2ccccc2c1N=NC(=S)NCCc1ccccc1", "z-score": "active: 3.06"},
      {"smiles": "COc1ccc(C2(C(=O)Nc3ccc(C(=O)O)cc3)CCOCC2)cc1", "z-score": -0.492},
      {"smiles": "COC(=O)COc1ccc(S(=O)(=O)NCc2cccnc2)cc1", "z-score": 0.415},
      {"smiles": "Cn1c(=O)oc2cc(S(=O)(=O)NC3CCCCCCC3)ccc21", "z-score": -0.856},
      {"smiles": "Cc1ccc(C)c2[nH]c(=O)c(CN(Cc3nnnn3C3CCCCC3)CC3CCCO3)cc12", "note": "(configuration not stated)", "z-score": 0.487},
      {"smiles": "CCOC(=O)CNC(=O)CSc1nnc(C)c(=O)[nH]1", "z-score": -0.0508},
      {"smiles": "CCOC(=O)c1cnc(SCC(=O)c2ccc(Cl)cc2)nc1N", "z-score": -0.0912},
      {"smiles": "O=C(NCCCN1CCOCC1)C(=O)N/N=C/c1c2ccccc2cc2ccccc12", "z-score": -0.528},
      {"smiles": "COC(=O)c1ccc(NC(=O)CSc2nnc(CNc3ccc(OC)cc3)n2C)cc1", "z-score": -0.738},
      {"smiles": "O=C(c1ccc(Cl)cc1)c1c[nH]cc1-c1ccccc1", "z-score": 0.0819},
      {"smiles": "O=c1c2ccccc2ncn1CCCSc1ccccc1", "z-score": -0.415},
      {"smiles": "Cc1cc(=O)[nH]c(Nc2cccc(C(F)(F)F)c2)n1", "z-score": 0.0124},
      {"smiles": "CCN1C(=O)C2(SC(NC(C)=O)=NN2C(C)=O)c2cc(C)ccc21", "note": "(configuration not stated)", "z-score": -0.0699},
      {"smiles": "COC(=O)c1cc2c(ccn2-c2ccc(F)cc2)n1Cc1ccc(OC)cc1", "z-score": -0.808},
      {"smiles": "COc1ccccc1NC(=O)Nc1ccnn1Cc1cccs1", "z-score": -0.188},
      {"smiles": "CCCc1nnc(SCC(=O)N2CCCC(C)C2)n1CC1CCCO1", "note": "(configuration not stated)", "z-score": -0.134},
      {"smiles": "CCn1c(COc2cccc(OC)c2)nnc1SCC(=O)N1CCOCC1", "z-score": -1.38},
      {"smiles": "N#Cc1ccsc1NC(=O)CN1CCN(c2ccc(O)cc2)CC1", "z-score": "active: -4.15"},
      {"smiles": "Cn1c(C(=O)NCCN2CCOCC2)cc2sccc21", "z-score": -0.552},
      {"smiles": "CC(C)CC(C(=O)N1CCc2ccccc2C1)N1C(=O)c2ccccc2C1=O", "note": "(configuration not stated)", "z-score": -0.313},
      {"smiles": "COc1ccc(C(=O)Oc2c(CN3CCOCC3)cc(Cl)c3cccnc23)cc1", "z-score": -0.137}
    ]}
  ]
}
